Source: paper PMC4336329 (PLoS ONE, 2015)
The campaign covered roughly 310,000 compounds. About 14,000 (4.5%) showed an effect of 50% or more. The effect is printed as a negative number. The list shows a part of the results.

These compounds were tested against human ether-à-go-go-related gene (hERG) potassium channel (human, UniProt Q12809) (assay: primary screen, population patch clamp on CHO cells stably expressing hERG).
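Also: peak tail current of the secondary pulse compared with the same well before compound.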

Sequence of human ether-à-go-go-related gene (hERG) potassium channel (Q12809 whole entry, looked up): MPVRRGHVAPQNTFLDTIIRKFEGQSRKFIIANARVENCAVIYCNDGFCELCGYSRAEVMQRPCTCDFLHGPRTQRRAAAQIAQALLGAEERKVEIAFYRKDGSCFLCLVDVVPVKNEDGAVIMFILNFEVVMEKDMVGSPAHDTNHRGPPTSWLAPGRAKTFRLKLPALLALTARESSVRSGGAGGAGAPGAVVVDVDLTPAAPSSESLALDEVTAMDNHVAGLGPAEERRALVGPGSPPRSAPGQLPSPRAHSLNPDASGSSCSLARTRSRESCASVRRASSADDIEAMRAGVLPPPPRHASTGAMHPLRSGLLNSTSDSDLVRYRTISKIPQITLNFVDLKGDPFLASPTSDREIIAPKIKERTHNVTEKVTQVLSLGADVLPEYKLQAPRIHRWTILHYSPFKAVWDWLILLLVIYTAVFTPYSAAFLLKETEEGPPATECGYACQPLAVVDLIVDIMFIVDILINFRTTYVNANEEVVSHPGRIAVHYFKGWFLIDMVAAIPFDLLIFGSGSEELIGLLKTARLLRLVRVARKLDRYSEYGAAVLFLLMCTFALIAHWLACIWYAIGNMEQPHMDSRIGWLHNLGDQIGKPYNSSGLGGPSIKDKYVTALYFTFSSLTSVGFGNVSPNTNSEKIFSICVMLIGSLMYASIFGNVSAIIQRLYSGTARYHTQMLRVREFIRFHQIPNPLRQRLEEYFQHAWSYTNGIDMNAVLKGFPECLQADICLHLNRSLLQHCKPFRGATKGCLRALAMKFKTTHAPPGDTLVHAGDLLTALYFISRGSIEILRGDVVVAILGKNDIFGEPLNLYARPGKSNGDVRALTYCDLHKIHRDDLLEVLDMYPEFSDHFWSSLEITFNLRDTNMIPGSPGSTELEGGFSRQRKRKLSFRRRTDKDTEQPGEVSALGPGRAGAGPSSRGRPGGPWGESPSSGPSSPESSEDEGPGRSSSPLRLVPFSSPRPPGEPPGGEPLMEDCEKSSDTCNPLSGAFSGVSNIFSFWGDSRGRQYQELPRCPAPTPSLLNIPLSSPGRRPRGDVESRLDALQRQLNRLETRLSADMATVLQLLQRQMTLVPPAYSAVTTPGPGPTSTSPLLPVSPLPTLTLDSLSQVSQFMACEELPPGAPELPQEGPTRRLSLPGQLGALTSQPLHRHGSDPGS

Compound | hERG current change (%, negative = inhibition) at 10uM
COCCNC(=O)C1CC(c2ccccc2[N+](=O)[O-])=NO1 (stereo not shown) | 17.8%
O=C(Cn1nnc(-c2ccc(OCc3ccccc3F)cc2)n1)N1CCOCC1 | -4.97%
O=C(c1ccc(S(=O)(=O)N2CCCCC2)cc1)N1CCN(c2ccccc2)CC1 | 3.03%
CC(C)(C)NC(=O)CN(C(=O)CSc1nnc(COc2ccccc2)o1)c1cccc(F)c1 | 5.74%
Cc1cccc(NC(=O)CCNS(=O)(=O)c2cccc3nsnc23)c1C | 3.73%
Cc1[nH]c(=O)[nH]c1C(=O)CCCCC(=O)O | -57.7%
Cc1cccc(C(=O)Oc2ccc(/C=N/NC(=O)c3ccccc3O)cc2)c1 | 17.5%
COC(=O)c1ccc(C(=O)OC)c(NC(=S)N2CCN(c3ccccc3)CC2)c1 | -19.1%
Cn1c(N)c(C(C[N+](=O)[O-])c2c(F)cccc2Cl)c(=O)n(C)c1=O (stereo not shown) | 16.2%
O=C(CSc1ncnc2sc3c(c12)CCCC3)N1CCC(c2noc3ccc(F)cc23)CC1 | -7.24%
CCN(CC)CCCNC(=O)COc1ccc2oc3c(c2c1)CCCC3.Cl | -45.7%
Cc1cc(C)cc(N(CC(=O)NC2CCCC2)C(=O)CNC(=O)c2ccco2)c1 | 10.7%
CNc1nc(OCC(F)(F)F)nc(N2CCOCC2)n1 | 5.76%
CCCc1cc(C(=O)NCCc2ccc(OC)c(OC)c2)no1 | -18.4%
CCOC(=O)c1sc(NC(=O)c2ccncc2)c(C#N)c1C | 22.8%
O=C(COc1ncnc2cc(Cl)ccc12)c1ccccc1 | 12.3%
Cc1cc(=O)[nH]c2nnc(-c3ccc(Cl)cc3)n12 | 15.1%
CCOc1cc(CN2CCC(n3nccc3NC(=O)C3CC3)CC2)ccc1O | -22%
Cc1nn(C(=O)c2ccco2)c(C)c1Sc1ccc(Cl)cc1 | 11.9%
COCc1ccc(CN2CCC(n3nccc3NC(=O)CCOc3ccccc3)CC2)o1 | -0.748%
Cc1cc(C)cc(N(CC(=O)NCc2ccco2)C(=O)c2snc(C(N)=O)c2N)c1 | 4.92%
CC[C@H](C)[C@H](NC(=O)CNC(=O)COc1cc2c(c3oc(=O)cc(C)c13)CCC(C)(C)O2)C(=O)O | 11.1%

Compound | hERG current change (%, negative = inhibition) at 10uM
COc1ccc(NC(=O)CN(C)C(=O)C2CC(=O)N(c3cccc4ccccc34)C2)cc1 (stereo not shown) | 1.33%
O=C(CCCCCN1C(=O)CCC1=O)Nc1ccc2c(c1)OCCO2 | 8.47%
CCOc1cc2c3c(c1)C(C)CC(C)(C)N3C(=O)C2=O (stereo not shown) | -6.41%
CCN1C(=O)[C@H]2[C@@H](c3ccc(C)cc3)N3C(=O)N(c4ccccc4)C(=O)[C@@]3(CC)[C@H]2C1=O | 3.81%
O=C(O)C(=O)O.c1cc(CN2CCN(C3CCCCCC3)CC2)ccn1 | -35.7%
CC1(C)CC2(CCO1)OC(=O)CC2C(=O)Nc1ccc(Br)cc1 (stereo not shown) | -11.3%
CCc1ccc(C2=CC(c3cc(Br)ccc3F)n3ncnc3N2)cc1 (stereo not shown) | 8.07%
CCOc1ccc(C(C)=O)cc1COC(=O)C1=COCCO1 | -8.39%
Cc1ccc(-c2cnc(NC(=O)CCC(=O)N3CCCCC3)n2C)cc1 | -6.45%
O=C(NCc1nc2ccccc2[nH]1)C1=C[C@@H](c2ccccc2)C[C@@H](OCc2ccc(CO)cc2)O1 | -64.9%
CCCOc1ccccc1C(=O)Nc1ccc(S(=O)(=O)N2CCN(C)CC2)cc1 | -10.1%
O=C(CC(SCCO)c1ccc2c(c1)OCO2)c1ccco1 (stereo not shown) | 8.89%
CCOC(=O)Cc1csc(NC(=O)Cc2cccs2)n1 | 6.28%
Cc1cccc(NC(=O)NCCc2c[nH]c3ccccc23)c1 | -9.68%
CSc1ncc(Cl)c(C(=O)Nc2cccc(Cl)c2)n1 | -8.43%
CC1CCCCC1NC(=O)CN1CCC(O)(c2ccc3c(c2)OCO3)CC1 (stereo not shown) | -6.59%
Cc1cc([N+](=O)[O-])c(-c2ccc(/C=N/n3cnnc3)o2)cc1Cl | -11.4%
COc1cc(C(=O)OCCCN(C)C)cc(OC)c1OC.Cl | 4.69%
O=c1[nH]cnc2scc(-c3ccc(F)cc3)c12 | 0.0739%
c1ccc(Nc2nc3ccccc3n3nnnc23)cc1 | -4.24%
Cc1ccccc1-c1nc(CN2CCCC2c2ccc(F)cc2)c(C)o1 (stereo not shown) | 19.8%
Cc1ncc(C[n+]2csc(C)c2C)c(N)n1.Cl.[Cl-] | 15.6%

Compound | hERG current change (%, negative = inhibition) at 10uM
CC(=O)CC(C)(C)n1nnc(-c2ccccc2)n1 | 6.25%
CC(OC(=O)Cn1c(C(F)(F)F)nc2ccccc21)C(=O)N1CCCc2ccccc21 (stereo not shown) | -1.3%
COc1ccc(S(=O)(=O)N2CCC(C(=O)NN3CCCCC3)CC2)cc1OC | 2.01%
COc1ccc(Nc2ncnc3ccccc23)cc1.Cl | -2.07%
COc1ccc(-c2ccc(SCC(=O)N3CCOCC3)nn2)cc1OC | -9.16%
CCOc1ccccc1NC(=O)CN(c1ccc(OC)cc1OC)S(=O)(=O)c1ccccc1[N+](=O)[O-] | 18.2%
COc1cc2nc(Cl)nc(NCCO)c2cc1OC | -9.56%
O=[N+]([O-])c1cccc(OCC(O)CN2CCN(S(=O)(=O)c3cc(Cl)ccc3Cl)CC2)c1 (stereo not shown) | -31.3%
O=C(COc1ccc(Cl)cc1)NNC(=O)c1ccccc1C(=O)O | 16.2%
CCCNC(=O)NC(C(=O)OC)C12CC3CC(CC(C3)C1)C2 (stereo not shown) | -10.8%
O=C(CCC1CCCN(C(=O)c2ccc3cc[nH]c3c2)C1)N1CCN(c2ccccn2)CC1 (stereo not shown) | -5.79%
O=c1c2sccc2nc(SCc2cc(=O)n3ccccc3n2)n1Cc1ccccn1 | -22.3%
COc1ccc(NC(=S)N(Cc2cccc(Br)c2)CC2CCC(C(=O)O)CC2)cc1 (stereo not shown) | -18.2%
O=C(OC(C(=O)NCC1CCCO1)c1ccc(F)cc1)c1ccco1 (stereo not shown) | 5.64%
O=C(Cc1csc(-c2cccc(Cl)c2)n1)Nc1cccc(S(=O)(=O)NC2=NCCC2)c1 | -13.7%
C=CCNC(=O)C(=O)Nc1ccc2c(c1)N(S(=O)(=O)c1cccs1)CCC2 | -14.7%
COc1ccc(C2c3c(nc(C)[nH]c3=O)Oc3c2c(=O)oc2ccccc32)cc1 (stereo not shown) | 13.7%
CCOc1cccc(C(=O)N(Cc2ccc(F)cc2)C2CCS(=O)(=O)C2)c1 (stereo not shown) | -24.8%
CCOc1ccc(NC(=O)C2CCC(CNc3c(N4CCC(C)CC4)c(=O)c3=O)CC2)cc1 (stereo not shown) | -1.24%
CCOc1ccc(S(=O)(=O)N(CC)CC(=O)N2CCCC2)cc1 | 6.06%
CN1CCN(NC(=O)CN(C)S(=O)(=O)c2cc(Cl)ccc2Cl)CC1 | 1.77%
COc1ccccc1C(=O)Nc1ccc(C(=O)N2CCCCC2)cc1 | -9.76%

Compound | hERG current change (%, negative = inhibition) at 10uM
CC1CCCN(S(=O)(=O)c2ccc(NC(=O)Cc3ccc(S(=O)(=O)N4CCOCC4)s3)cc2)C1 (stereo not shown) | -15%
Cn1cc([N+](=O)[O-])c(C(=O)Nc2sc3c(c2C#N)CCC3)n1 | 0.703%
CCc1nnc(NS(=O)(=O)c2ccc(N/C=C/C(=O)c3ccc(OC)cc3)cc2)s1 | 8.4%
Cc1ccc(NC(=O)C2OCCc3ccccc32)cc1C (stereo not shown) | -3.78%
Cc1ccc(N(CC(=O)Nc2cc(C)cc(C)c2)S(=O)(=O)c2c(C)noc2C)cc1 | 6.82%
CC(=O)Nc1ccc(N2CCN(Cc3ccccc3F)CC2)cc1 | -25.7%
Cc1c(NC(=S)NC(=O)c2cccc(Br)c2)c(=O)n(-c2ccccc2)n1C | 8.41%
COc1cccc(C(=O)NCCS(=O)(=O)N2CCCCCC2)c1 | -10.5%
Cc1noc(C)c1S(=O)(=O)N(CC(=O)NCc1ccc(F)cc1)c1ccc(C(C)C)cc1 | 13.8%
CC1CCCCC1NC(=O)C(C)N1C(=O)c2ccccc2C1=O (stereo not shown) | -1.72%
CCOc1cccc2sc(NC(=O)c3ccc(Br)s3)nc12 | 18.6%
COc1cc(OC)cc(-c2nc3ccccc3c(=O)n2OC(=O)c2ccc(Br)cc2)c1 | 11.4%
COc1ccccc1N1CCN(C(=O)CSc2nnc3c4ccccc4nc(Cc4ccccc4)n23)CC1 | -4.18%
Cl.NC(=O)c1c(NC(=O)C2COc3ccccc3O2)sc2c1CCN(Cc1ccccc1)C2 (stereo not shown) | 18.6%
CS(=O)(=O)c1ccccc1C(=O)Nc1cccc2ncccc12 | 14.2%
O=C1c2ccccc2-c2c1cccc2C(=O)N1CCN(C(=O)c2ccco2)CC1 | -71.1%
CCc1noc(C)c1C(=O)OC(C)C(=O)NCc1ccc(OC)cc1 (stereo not shown) | -15.3%
CCN(CC)c1nc2ccccc2nc1C(C#N)C(=O)NCCc1ccccc1 (stereo not shown) | -1.99%
CN(C)C(C)(C)C#CC(O)(c1ccccc1)c1ccccc1 | -26.6%
